According to PubChem BioAssay AID1963576 (National Center for Advancing Translational Sciences (NCATS), 2024):
About 60 (0.1%) of roughly 46,000 compounds were called active. About 3% were inconclusive and are not listed. Calls come from the whole dose curve; as a rule, active = well fitted inhibition curve with a large enough effect; inconclusive = small, poorly fitted or top-dose-only effect; inactive = no such curve, though single readings can be large or run the other way. The list shows a part of the results.

Assay: Primary qHTS assay for Inhibitors of ovarian cancer metastasis using an organotypic tumor microenvironment (TME) model.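 For activity change, negative = inhibition: plate controls were DMSO wells for no effect and tomatine positive control wells for full effect.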 Note: nearly all actives have a fitted effect of over 65% in size.
Details: SKOV3ip1-GFP adhesion/invasion on 3D omental model, fluorescence; series mostly up to 45.8 µM; activity change, negative = inhibition: at the top concentration
Procedure, shortened: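 qHTS, 4-pt dose (0.36-46 umol/L); SKOV3ip1-GFP, 1,200 cells/well, no FBS; primary omental fibroblast/mesothelial co-culture 48 h pre-grown; 2 h RT + 16 h 37 C; PBS wash, 4% PFA; GFP count 488/509 nm.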

Activity change, negative = inhibition, inactive:
COc1ccc(N2CCN(C(=O)CCS(=O)(=O)c3cc4c(cc3Cl)NC(=O)CO4)CC2)cc1 1.02%
COc1ccc(-c2nnn3c2nc(N2CCCC(C)C2)c2ccccc23)cc1 (stereo unspecified) -1.45%
CCOC(=O)c1ccccc1NC(=O)CSc1nc2ncccc2[nH]1 2.42%
CCN1c2ccccc2-c2nc(SCC(=O)Nc3ccc(C)c(Cl)c3)ncc2S1(=O)=O 2.63%
Cc1ccc(S(=O)(=O)NCc2nc3nc(C)cc(C)n3n2)c(C)c1 2.58%
O=c1c2sc3ccccc3c2n(Cc2ccccc2)c(=O)n1Cc1ccccc1 2.46%
COc1ccc(N2CCN(CC(O)COc3ccc(C(C)(C)C)cc3)CC2)cc1 (stereo unspecified) -8.29%
Cc1ccc(S(=O)(=O)c2[nH]c(-c3ccccc3)nc2SCC(=O)O)cc1 -3.95%
CCOC(=O)c1ccc(NC(=O)CC2C(=O)N(c3ccccc3)C(=O)N2Cc2cccs2)cc1 (stereo unspecified) 15.9%
O=C1NC(=O)[C@@H](c2cn3c4c(cccc24)CCC3)[C@H]1c1c[nH]c2ccccc12 -20.4%
Cc1ccc(Cl)cc1NC(=O)c1ccc(-c2nc(CSc3ccccc3)c(C)o2)cc1 0.627%
CCC(=O)N1c2ccccc2CC1C(=O)N1CCN(c2ccccc2)CC1 (stereo unspecified) -6.58%
CCc1ccc(CN(C(=O)c2nc(SC)ncc2Cl)C2CCS(=O)(=O)C2)cc1 (stereo unspecified) -10.2%
CCN(C(=O)Cc1c(C(=O)O)[nH]c2ccccc12)c1ccc(OC)cc1 3.71%
CCOC(=O)c1ccc(NC(=O)CCc2c(C)nc3c(c(C)nn3C)c2C)cc1 -4.66%
CCOc1ccccc1NC(=O)Cn1c(=O)ccc2cc(S(=O)(=O)N3CCC(C)CC3)ccc21 -13%
O=c1c2c3c(sc2nnn1Cc1ccc(Br)cc1)CCCC3 -0.42%
O=S(=O)(NCCc1csc(-c2ccc(F)cc2)n1)c1ccc(Cl)cc1 1.64%
CC(=O)c1ccc(N2CCN(C(=O)C3CCN(S(=O)(=O)c4cccc5nonc45)CC3)CC2)cc1 0.319%
O=C(CSc1nccn1Cc1ccc(Cl)cc1)NC1CCCC1 -15.5%
Cc1ccc(CN2CCSc3ccc(C(=O)N4CCN(c5cccc(C)c5C)CC4)cc32)cc1 -2.86%
O=C(c1cc2ccccc2oc1=O)N(Cc1cccc(Cl)c1)C1CCS(=O)(=O)C1 (stereo unspecified) 3.33%
CCOC(=O)C1CCN(C(=O)C2COc3ccccc3C2)CC1 (stereo unspecified) -2.54%
Cc1ccc(OCCCn2c(C3CC(=O)N(c4cccc(Cl)c4)C3)nc3ccccc32)c(C)c1 (stereo unspecified) 1.88%
COc1ccc(-n2ncc(C(=O)NCc3ccccc3)c2C2CCN(C(=O)OC(C)(C)C)CC2)cc1 -7.75%
COc1ccc(-c2nc3c(C#N)c[nH]n3c2NC2CCCCC2)c(OC)c1 -9.93%
CCCC(=O)NCC(c1ccc2c(c1)OCO2)N1CCN(c2ccc(F)cc2)CC1 (stereo unspecified) 0.827%
CCc1ccc(NC(=O)Cn2cnc3sc(C)c(S(=O)(=O)N4CCC(C)CC4)c3c2=O)cc1 -9.41%
CCOc1ccccc1CNC(=O)Nc1cn(CC(C)C)c(=O)c2ccccc12 -7.41%
COc1ccc(CCNC(=O)CCn2c(=O)c3cccn3c3ccc(F)cc32)c(OC)c1OC 0.361%
Cc1ccc(OCc2nc3ccccc3n2CC(C)C)cc1 4.46%
Cc1ccc(CN2CCC(CNc3ncnc4onc(-c5ccc(Cl)cc5)c34)CC2)cc1 -11.4%
CCCN(C(=O)c1cc2c(s1)-c1ccccc1SC2)c1ccccc1F -26%
Cc1cc2c(cc1S(=O)(=O)NCc1ccc(N(C)C)cc1)OCC(=O)N2 8.73%
CC(Oc1ccccc1)C(=O)Nc1nc2ccc(S(N)(=O)=O)cc2s1 (stereo unspecified) -0.0764%
COC(=O)CNC(=O)Nc1cc(C(=O)NCc2ccc(C)cc2)ccc1N1CCCC1 0.0817%
CC(C)(C)NS(=O)(=O)c1ccc2nc(NC(=O)c3cccnc3)sc2c1 0.902%
COc1ccc2c(c1)c(C1=C(c3c[nH]c4ccccc34)C(=O)NC1=O)cn2CCCN(C)C -9.58%
COc1cc(C2NC(=O)NC(C)=C2C(=O)Nc2cc(C)cc(C)c2)ccc1O (stereo unspecified) -1.06%
CCOC(=O)c1c(C)c(-c2ccccc2)n(CC(=O)Nc2cc(OC)cc(OC)c2)c1C 7.77%
CCOC(=O)c1noc2ncnc(N3CCN(c4ccccc4OC)CC3)c12 5.74%
Cc1ccc(Cn2c(SCC(=O)NCc3ccc(Cl)cc3)nc3ccsc3c2=O)cc1 4.18%
CCc1cc(C(=O)Nc2c(C)nn(Cc3ccc(C)cc3)c2C)no1 1.39%
O=C(CSc1nc2ccccc2c2nc(-c3ccccc3)nn12)Nc1ccc(Br)cc1 -6.91%
CC(C)(C)c1cc(C(C)(C)C)c2oc(=O)c(-c3nc4ccccc4[nH]3)cc2c1 -2.7%
O=C(Nc1ccc(F)cc1F)c1ccc(CN2CC(=O)N3CCCCC3C2=O)cc1 (stereo unspecified) 2.98%
COC(=O)C1CCN(S(=O)(=O)c2cc3c4c(c2)C(C)C(=O)N4CCC3)CC1 (stereo unspecified) 14.8%
CC(=O)N1c2ccccc2CC1C(=O)N1CCN(c2ccc(F)cc2)CC1 (stereo unspecified) 8.22%
COCCCNC(=O)Cn1c(=O)n(-c2ccc(C)cc2)c(=O)c2c1c1cc(C)ccc1n2C 0.969%
O=c1cc(-c2ccccc2)oc2cc(O)cc(O)c12 28%
COc1cccc(N2CCN(C(=O)C3CCC(CNS(=O)(=O)c4ccc(Br)s4)CC3)CC2)c1 (stereo unspecified) -9.3%
Cc1ccc(Cl)cc1N1CCN(C(=O)c2cn(C3CCCCC3)c(=O)c3c2c2ccccc2n3C)CC1 2.3%
Cc1nn(C(=O)c2cccc([N+](=O)[O-])c2C)c(C)c1S(=O)(=O)N1CCOCC1 5.82%
CC(=O)Nc1ccc(S(=O)(=O)NCC2CCC(C(=O)NCCc3ccccc3)CC2)cc1 (stereo unspecified) -5.08%
CC(CCc1ccccc1)NC(=O)Cn1ncc2c3ccccc3n(Cc3ccc(F)cc3)c2c1=O (stereo unspecified) 8.32%
CC(C)c1ccc(S(=O)(=O)c2nnn3c2nc(NCCc2ccccc2)c2sccc23)cc1 -5.16%
Cc1cc(C)cc(Oc2nc3c(C)cccn3c(=O)c2/C=C(\C#N)c2nc3ccccc3[nH]2)c1 -0.664%
Cc1ccc(NC(=O)CC(C)S(=O)(=O)c2ccc3c(c2)NC(=O)CO3)c(C)c1 (stereo unspecified) 3.18%
Cc1ccc2nc(-c3ccsc3)c(Nc3ccccc3C)n2c1 -18.2%
Cc1nc2nncn2c(N2CCN(c3ccccc3)CC2)c1C -3.86%
c1cnc2cc3c(cc2n1)C1CNCC3C1 1.69%
Cc1ccc(NC(=O)CSc2ncc3c(n2)-c2ccccc2N(Cc2cccc(F)c2)S3(=O)=O)cc1F 0.495%
Cc1ccc(-c2cc(C(F)(F)F)n3nc(C(=O)Nc4ccc(Cl)cc4Cl)cc3n2)cc1 17.5%
CCN(CC)C(=O)C1CCN(S(=O)(=O)c2ccc3c(c2)CCCN3C(C)=O)CC1 -10.6%
O=C1c2ccccc2C(=O)C1(c1ccccc1)N1CCN(c2cccc(Cl)c2)CC1 -9.47%
COc1ccc(-n2c(/C=C/c3ccccc3F)nc3cc(OC)c(OC)cc3c2=O)cc1Cl 5.08%
COCCNC(=O)c1cnn(-c2ccc(C)cc2C)c1C1CCN(C(=O)OC(C)(C)C)CC1 1.52%
CN(C)CCOc1ccc(-c2nc(-c3ccc4c(c3)CCC4=NO)c(-c3ccncc3)[nH]2)cc1 -3.95%
COCCNC(=O)Cc1ccc(NC(=O)N2CCCCc3ccccc32)cc1 4.78%
O=C(NCc1ccc(F)cc1)c1ccc(CSCc2cccc(Cl)c2)o1 5.82%
CCN(Cc1ccccc1)C(=O)c1c(C)oc2ncn(C)c(=O)c12 9.24%

outcome, inactive:
CC(=O)c1cc(C(=O)Nc2cccc(C)c2)c2ccccn12
Cc1ccc(C)c(N(C)C(=O)C2CCN(S(=O)(=O)c3cccc4nsnc34)CC2)c1
CCOC(=O)C1CCCN(S(=O)(=O)c2ccc3[nH]c(=O)ccc3c2)C1 (stereo unspecified)
CCOc1ccc(CNC(=O)c2ccc3nc(Cc4ccc(OC)cc4)oc3c2)cc1OC
Cc1ccc2c(CNCCc3ccc(Cl)cc3)c(C(=O)O)n(Cc3ccc(F)cc3)c2c1
CC(C)Cc1nn2c(=O)cc(COC(=O)c3ccc(NC(=O)c4cccs4)cc3)nc2s1
COc1ccc(-c2cnc(C)o2)cc1S(=O)(=O)Nc1ccc(C)c(F)c1
COc1cccc(-n2ccnc2SCC(=O)Nc2cccc(C)c2C)c1
CC1(c2ccc(Cl)cc2)CC(C)(C)N(C(=O)c2ccccc2)c2ccccc21 (stereo unspecified)
COc1ccc(N(CC(=O)NC(C)c2ccccc2)S(=O)(=O)c2c(C)noc2C)cc1 (stereo unspecified)
COc1ccc(C)cc1NC(=O)c1oc2ccc(S(=O)(=O)N(C)C3CCCCC3)cc2c1C
CCS(=O)(=O)N1CC(=O)N(c2ccccc2C)C(C)(C(=O)NC2CCCCC2)C1 (stereo unspecified)
Cc1ccc(NC(=O)CN2CCCN(Cc3cc(C)ccc3C)S2(=O)=O)c(Cl)c1
CN(C)c1ccc(C(CNC(=O)COc2ccc(Cl)cc2)N2CCOCC2)cc1 (stereo unspecified)
COc1ccc(NC(=O)CSc2nnc(-c3ccc(C)cc3)o2)cc1
Cc1ccc(CNC(=O)c2cc3sccc3n2Cc2ccc(Cl)cc2)cc1
CCCn1c(=O)c2sccc2n2c(CCCC(=O)NCCc3ccc(Cl)cc3)nnc12
COc1cccc(N2CC(NC(=O)C(c3ccccc3)c3ccccc3)CC2=O)c1 (stereo unspecified)
COCC(=O)Oc1c(Sc2ccc(C)cc2)c(C)nn1C(C)(C)C
COc1cc(-c2ccno2)ccc1S(=O)(=O)N1CCN(c2cc(C)ccc2C)CC1
Cc1ccc(N2CC(NC(=O)/C=C\c3ccc4c(c3)OCO4)CC2=O)cc1C (stereo unspecified)
COC(=O)c1scc(-c2ccccc2)c1S(=O)(=O)Nc1ccccc1
Cc1ccccc1Cn1c(C(=O)O)c(CNCc2cccc(F)c2)c2ccccc21
Cn1cc(CN(C(=O)Nc2ccc(Cl)c(Cl)c2)C2CCCCC2)c2ccccc21
CCOc1ccc(C(=O)Nc2cc(-c3nc4ccccc4o3)ccc2C)cc1Cl
